The other results are listed elsewhere or left out.

This assay concerns HSkMC (human skeletal muscle cells). Briefly: cytotoxicity call (relative viability < 0.9). The following applies: 10 µM.
For `[O-][n+]1ccccc1[S][Zn][S]c1cccc[n+]1[O-]`, the cytotoxicity call is “active”. As to `COc1cc2c3cc1Oc1c(OC)c(OC)cc4c1[C@@H](Cc1cccc(c1)Oc1ccc(c(O)c1)C[C@@H]3N(C)CC2)N(C)CC4`, the cytotoxicity call is “inactive”. Consider `CCC(COC(=O)c1cc(OC)c(OC)c(OC)c1)(c1ccccc1)N(C)C.O=C(O)C=CC(=O)O` (centres undefined), for which the cytotoxicity call is “inactive”. For `CC(CO)NC(=O)C1C=C2c3cccc4[nH]cc(c34)CC2N(C)C1.O=C(O)C=CC(=O)O` (centres undefined) the value was “inactive”; for `C=C(C)[C@@H]1[C@H]2OC(=O)[C@@H]1[C@]1(O)C[C@H]3O[C@]34C(=O)O[C@H]2[C@]14C`, “inactive”; for `CC(=O)NCCSS(C)(=O)=O.CN(C)c1ccc2c(-c3ccccc3C(=O)O)c3ccc(N(C)C)cc3[o+]c2c1`, “inactive”. In the case of `COc1ccc([C@@H](CN)C(C)C)cc1OC` it was “inactive”; in that of `N=C(N)/N=C(\N)Nc1ccc(Cl)cc1`, “inactive”; in that of `CN1[C@@H]2CNc3ccccc3[C@@H]2[C@@H]1CO`, “inactive”. Turning to `NCC(=O)Nc1ccc(Br)cc1C(=O)c1ccccc1`, the cytotoxicity call was “inactive”. Regarding `COc1ccc(OC)c(C(O)C(C)N)c1.Cl` (centres undefined), the cytotoxicity call is “inactive”. As for `CC(C)C[C@@H](NC(=O)[C@H](Cc1ccccc1)NC(=O)CNC(=O)[C@@H](C)NC(=O)[C@@H](N)Cc1ccc(O)cc1)C(=O)O`, the cytotoxicity call was “inactive”. With `CCO[C@H]1[C@H]2CC[C@@H]1NC2`, the cytotoxicity call was “inactive”. For the compound `NNc1ccn([C@@H]2O[C@H](CO)[C@@H](O)[C@H]2O)c(=O)n1`, the cytotoxicity call was “inactive”. In the case of `C[N+]1(C)C2CC(OC(=O)C(CO)c3ccccc3)CC1C1OC12.[Br-]` (centres undefined), the cytotoxicity call is “inactive”. With `COc1cc2c(cc1OC)C1CC(=O)C(CC(C)C)CN1CC2` (centres undefined), the cytotoxicity call was “inactive”.

With `O=[N+]([O-])c1c(NCCO)ccc2nonc12`, the cytotoxicity call is “inactive”. Regarding `CC12CCC(=O)C=C1C=CC1C2CCC2(C)C1CCC2(O)CCC(=O)[O-].[K+]` (centres undefined), the cytotoxicity call was “inactive”. In the case of `O=C(O)Cc1cccnc1C(=O)O` it was “inactive”. As for `O=C1CCN(C(=O)C2CCC2)CC1`, the cytotoxicity call was “inactive”. As for `C=CCc1cc(OC)c2c(c1OC)OCO2`, the cytotoxicity call was “inactive”. In the case of `c1ccc(CN2CCNCC2)nc1` it was “inactive”; in that of `CC1C=CC=CCCC=CC=CC=CC=CC(OC2OC(C)C(O)C(N)C2O)CC2OC(O)(CC(O)C(O)CCC(O)CC(O)CC(O)CC(=O)OC(C)C(C)C1O)CC(O)C2C(=O)O` (centres undefined), “inactive”. For `O=C1CCCC2C3CC(CN12)C1CCCCN1C3.[O-][Cl+3]([O-])([O-])O` (centres undefined), the cytotoxicity call is “inactive”. Consider `C=CCN1C[C@H]2CN(C(C)C)C[C@H]2C1=O`, for which the cytotoxicity call was “inactive”. In the case of `O=C([O-])Cc1ccccc1.[Na+]` it was “inactive”; in that of `CCC(C)C(=O)OC1CC2(C)C(c3ccoc3)OC(=O)CC23OC2(C)OC34C(OC(=O)C(C)C)C3(O)C(OC(=O)C5(C)OC5C)C5(C)CC3(O)C(C)(C5CC(=O)OC)C14O2` (centres undefined), “inactive”. Consider `CC(C)(CN)CNc1ccc([N+](=O)[O-])c2cccnc12`, for which the cytotoxicity call is “inactive”.

Consider `O=C1C=C2C(=CCO[C@@H]2O)O1`, for which the cytotoxicity call is “inactive”. For the compound `O=C(CBr)N1CC([N+](=O)[O-])([N+](=O)[O-])C1`, the cytotoxicity call was “inactive”. Regarding `COc1cc(OC)c(OC)cc1C=O`, the cytotoxicity call was “inactive”. As to `C(=N/C12CN3CN(CN(C3)C1)C2)/c1cccnc1`, the cytotoxicity call was “inactive”. In the case of `O=C(O)C[C@@H]1CC[C@H]2NC[C@@H](O)COC[C@@H]2O1` it was “inactive”.

Turning to `NSC(=S)N1CCCC1`, the cytotoxicity call was “inactive”. Consider `CC1CCC2(NC1)OC1CC3C4CC=C5CC(O)CCC5(C)C4CCC3(C)C1C2C` (centres undefined), for which the cytotoxicity call is “inactive”.

As to `O=C1[O][Pt]2([NH][C@@H]3CCCC[C@H]3[NH]2)[O]C1=O`, the cytotoxicity call was “active”.

For the compound `CCCNC(=O)C1=NO[C@]2(CCNC2)C1`, the cytotoxicity call was “inactive”. For `CCC1(C2OC(C3OC(O)(CO)C(C)CC3C)CC2C)CCC(C2(C)CCC3(CC(O)C(C)C(C(C)C(OC)C(C)C(=O)[O-])O3)O2)O1.[Na+]` (centres undefined) the value was “inactive”; for `O=S1(=O)COC2(CNC2)CN1`, “inactive”.

These data come from the antibiotic and cytotoxicity screens of Wong et al. (2023).
